Among all 300,000 compounds or so, about 1,200 (0.4%) were called active. Inconclusive results, whose numbers are uncertain, are shown with a selection of clear calls. Calls come from the whole dose curve; as a rule, active = well fitted inhibition curve with a large enough effect; inconclusive = small, poorly fitted or top-dose-only effect, or another doubt; inactive = no such curve, though single readings can be large or run the other way. Where the call is inconclusive, the potency comes from a doubtful curve fit.
Biological target: Lysosomal alpha-glucosidase (Homo sapiens) (UniProt P10253)
Experiment: qHTS Assay for Inhibitors and Activators of Human alpha-Glucosidase Cleavage of Glycogen;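 for activity change, negative = inhibition: 0% = full enzyme reaction and -100% = no-enzyme basal signal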
Details: recombinant GAA, glycogen substrate, Amplex Red glucose oxidase fluorescence; activity change, negative = inhibition: at 76.4 µM (top of the series) unless noted
Outline: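 Recombinant enzyme (4 nM final) with compounds titrated up to 77 uM and bovine liver glycogen (30 ug) in citrate pH 5.0, 0.01% Tween-20, 37 C 40 min. Released glucose detected by Amplex Red/glucose oxidase (Ex 573/Em 610); AC50 from Hill fits.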
Potency is the fitted concentration of half-maximal effect.

SMILES	Potency	activity change, negative = inhibition
CCCC(=O)Nc1ccc(C(=O)NNC(=S)NC(=O)c2cccs2)cc1	inconclusive: 39.8 µM [inhibitor, single point]	
CC(C)(C)c1ccc(C(=O)O/N=C(\N)c2ccccc2)cc1		inactive: -3.4%
N#Cc1nc(-c2cccc3ccccc23)oc1NCC1CCCO1 (centres undefined)	inconclusive: 28.2 µM [inhibitor, partial curve]	
CC(=O)N1c2ccccc2C(=O)C1N(C)c1ccc(C)cc1 (centres undefined)	inconclusive: 25.1 µM [inhibitor, partial curve]	
c1ccc(-n2c(SCc3ccncc3)nnc2-c2ccco2)cc1		inactive: -3.23%
S=C(Nc1ccccc1)Nc1nccs1	inconclusive: 14 µM [inhibitor, partial curve]	
O=C(NC1C2CCCC1CN(C1CC1)C2)c1ccc(Cl)cc1 (centres undefined)	inconclusive: 7.08 µM [inhibitor, full curve]	
O=C(O)COc1ccccc1/C=N/NC(=O)c1cc2ccccc2cc1O	inconclusive: 50.1 µM [inhibitor, single point]	
FC(F)(F)c1ccccc1NC(=S)Nc1cccc2cnccc12		inactive: -26.6%
Cc1nn2c(nc1=O)NNC2(C)C(C)(C)C (centres undefined)	inconclusive: 35.2 µM [inhibitor, partial curve]	
Cc1cc(=S)[nH]c(=S)[nH]1	inconclusive: 56.2 µM [inhibitor, single point]	
CN1CCSc2ccc(C(=O)NCc3ccccc3F)cc21	inconclusive: 28.2 µM [inhibitor, partial curve]	
COC(=O)c1c(C)sc(-c2c(-c3ccc4c(c3)OCCO4)[nH]c3[nH]c(=O)[nH]c(=O)c23)c1O	active: 25.1 µM	
CCOc1ccc(-c2cc3nc(C4CCN(C(=O)OC(C)(C)C)CC4)c(C(=O)Nc4ccc(C)cc4Cl)cn3n2)cc1		inactive: -16.2% [at 76.3 µM]
COc1ccc(-c2nn(-c3ccccc3)cc2C(=O)NC(=S)NNC(=O)c2ccncc2)cc1	inconclusive: 50.1 µM [inhibitor, single point]	
Cc1n[nH]c(=S)n1/N=C/c1cccc(OCc2ccccc2)c1	inconclusive: 8.91 µM [inhibitor, full curve]	
O=C(CC1NCCNC1=O)Nc1ccccc1F (centres undefined)		inactive: 0.0739% [at 76.3 µM]
COc1cc2c(cc1OC)CN(CC(=O)Nc1ccc(Cl)c(S(=O)(=O)N(C)C)c1)CC2	inconclusive: 7.94 µM [activator, partial curve]	
O=C(NNC(=S)Nc1ccc(F)cc1)C1[C@H]2CCCC[C@@H]12 (some centres undefined)	inconclusive: 39.8 µM [inhibitor, partial curve]	
COc1ccccc1N/N=C/c1c(CO)cnc(C)c1O	active: 3.16 µM	
COc1ccc(S(=O)(=O)Cc2ccc(C(=O)NCCCN(C)c3ccccc3)o2)cc1	inconclusive: 14 µM [inhibitor, partial curve]	
Cc1ccc(C(=O)C2=C(O)C(=O)N(Cc3cccnc3)C2c2ccc(N(C)C)cc2)o1 (centres undefined)	inconclusive: 50.1 µM [inhibitor, single point]	
COc1ccc(N2CCN(C(=O)Cc3nn(C)c(=O)c4ccccc34)CC2)cc1	inconclusive: 39.8 µM [inhibitor, partial curve]	

SMILES	Potency	activity change, negative = inhibition
CCC/C=N/NC(=O)c1ccccc1O	inconclusive: 25.1 µM [inhibitor, partial curve]	
Cc1cccc(C)c1Nc1c(-c2cccs2)nc2ncccn12	inconclusive: 3.55 µM [inhibitor, full curve]	
CCn1c2ccccc2c2cc(NC(=O)C(C)Oc3ccccc3)ccc21 (centres undefined)	inconclusive: 39.5 µM [inhibitor, single point]	
Oc1ccc(/C=N/Nc2nccnc2Cl)cc1	active: 11.2 µM	
COc1ccc(Nc2c(-c3ccc(C)o3)nc3ccc(Cl)cn23)cc1	inconclusive: 15.8 µM [inhibitor, partial curve]	
CCC(C)(C)C1CCc2[nH]nc(C(=O)NN)c2C1 (centres undefined)	inconclusive: 35.5 µM [inhibitor, single point]	
ON(Cc1c(F)cccc1Cl)Cc1c(F)cccc1Cl	inconclusive: 17.8 µM [inhibitor, partial curve]	
CCN1CCN(c2cc(C)c3cc(NC(=S)N4CC(C)CC(C)C4)ccc3n2)CC1 (centres undefined)	inconclusive: 15.8 µM [inhibitor, partial curve]	
COc1ccc(CN2C(=O)C(NC(=O)c3ccccc3C)(C(F)(F)F)N=C2c2ccccc2)cc1 (centres undefined)		inactive: -12.6% [at 76.3 µM]
CC/C(C)=N/Nc1nc2c(c(=O)[nH]c(=O)n2C)n1Cc1ccccc1	inconclusive: 35.5 µM [inhibitor, partial curve]	
CC(=O)Nc1ccc(-c2csc(N/N=C\c3ccncc3)n2)cc1	inconclusive: 31.6 µM [inhibitor, single point]	
c1ccc(C2CC(c3cccs3)n3nnnc3N2)cc1 (centres undefined)	inconclusive: 7.08 µM [inhibitor, single point]	
COc1cccc(C2=Nc3cccc4cccc(c34)N2)c1	inconclusive: 35.2 µM [inhibitor, single point]	
COc1ccc(CC(=O)Nc2ccccc2N2CCCC2)cc1OC	inconclusive: 31.6 µM [inhibitor, partial curve]	
O=C(CN1C(=O)COc2ccc(Cl)cc21)Nc1ccc(N2CCOCC2)cc1		inactive: -8.28% [at 76.3 µM]
CCCNC(=O)c1ccc2c(=O)c(O)c(-c3ccc(OC)cc3)[nH]c2c1	inconclusive: 35.5 µM [inhibitor, single point]	
NNC(=O)c1nc[nH]c1C(=O)Nc1ccccn1	inconclusive: 10 µM [inhibitor, partial curve]	
COc1ccc([N+](=O)[O-])cc1/C=N/Nc1nn[nH]n1	inconclusive: 25.1 µM [inhibitor, partial curve]	
O=C(NCC(=O)N(Cc1cccs1)C(C(=O)NC1CCCC1)c1ccncc1)c1ccco1 (centres undefined)	inconclusive: 22.2 µM [inhibitor, single point]	
Cc1ccc(N/C=C2/Sc3ccccc3NC2=O)cc1	inconclusive: 39.8 µM [inhibitor, partial curve, poor fit]	
CCN1/C(=C2\C(=O)N(C)C(=S)N2C)C=Cc2cc(OC)ccc21	inconclusive: 39.8 µM [inhibitor, partial curve]	
CCN1CCN(CC(=O)N2CCCC(C(=O)c3ccc(Oc4ccccc4)cc3)C2)CC1 (centres undefined)	active: 7.94 µM	
Cc1cccc(/C=N\NC(=O)c2csnn2)c1		inconclusive: 22.9% [activator]

SMILES	Potency	activity change, negative = inhibition
CCOC(=O)C1=C(C)Nc2nc(=S)[nH]n2C1c1ccc(Cl)cc1 (centres undefined)	inconclusive: 35.2 µM [inhibitor, single point]	
COC(=O)c1c(C)sc(-c2c(-c3cccc(OC)c3)[nH]c3c2c(=O)[nH]c(=O)n3C)c1O	inconclusive: 12.6 µM [inhibitor, partial curve]	
CCOC(=O)c1c(C)[nH]c(NC(=O)Nc2c(C)n(C)n(-c3ccccc3)c2=O)c1C	active: 31.6 µM	
Cc1ccc2onc(CNC(=O)NCc3ccc(Cl)cc3)c2c1		inactive: 0.0095% [at 76.3 µM]
O=C(O)c1cc(N/N=C/c2c(O)ccc3ccccc23)ccc1Cl	inconclusive: 39.8 µM [inhibitor, single point]	
Cc1cccc(Nc2c(-c3ccsc3)nc3nc(C)cc(C)n23)c1	inconclusive: 3.98 µM [inhibitor, full curve]	
Cc1cc2c(cc3c(SCc4ccc(Cl)cc4)nncn32)o1	inconclusive: 1.12 µM [inhibitor, full curve]	
COc1cc(C2OCC3C(c4ccc(OC5OC(CO)C(O)C(O)C5O)c(OC)c4)OCC23)ccc1O (centres undefined)	inconclusive: 35.5 µM [inhibitor, single point]	
CN(CCCC(=O)O)S(=O)(=O)c1ccc2c(c1)C(=O)c1cc(S(=O)(=O)N(C)CCCC(=O)O)ccc1-2	active: 25.1 µM	
CC(C)CC(=O)Nc1ccccc1N1CCCC1	inconclusive: 8.84 µM [inhibitor, partial curve]	
CCNC(=S)Nc1cc(-c2ccc(Cl)cc2)[nH]n1	inconclusive: 19.8 µM [inhibitor, single point]	
Oc1ccc(Nc2ncnc3ccccc23)cc1	active: 22.4 µM	
Cc1cc(C)cc(NC(=O)Oc2ccccc2N2CCCCC2)c1	inconclusive: 15.8 µM [inhibitor, partial curve]	
Oc1ccc(NC(=S)N=Nc2c(O)[nH]c3ccc(Br)cc23)cc1	inconclusive: 7.88 µM [inhibitor, partial curve]	
CC(=O)C1=C(C)NC2=C(C(=O)c3ccccc32)C1c1ccccc1 (centres undefined)	inconclusive: 22.4 µM [inhibitor, partial curve]	
CC(C)(O)C(=O)NNC(=S)Nc1ccc(F)c(Cl)c1	inconclusive: 7.94 µM [inhibitor, full curve]	
CCOc1ccc(NCc2cccn2-c2nnc(N3CCC(C(=O)NCCCN4C(C)CCCC4C)CC3)s2)cc1 (centres undefined)	inconclusive: 8.91 µM [inhibitor, partial curve]	
COc1ccc(Cl)cc1N(CC(=O)N1CCCCCC1)S(C)(=O)=O		inactive: 5.6% [at 76.3 µM]
COc1cccc(/C=N/Nc2nnc(C)n2N)c1O	inconclusive: 11.2 µM [inhibitor, single point]	
CCNC(=S)N/N=C(\C)c1ccco1	inconclusive: 31.6 µM [inhibitor, single point]	
CCOc1ccc2nc(N3CCCC(C(=O)Nc4cc(C)ccc4C)C3)sc2c1 (centres undefined)		inactive: -4.5% [at 76.3 µM]
O=C(NNc1nc(-c2ccc(Br)cc2)cs1)c1ccco1	inconclusive: 28.2 µM [inhibitor, partial curve]	
N#Cc1c(N2CCN(c3ccc(F)cc3)CC2)nc(N)c2c(N)nc3c(c12)CC(=O)N3C1CC1	inconclusive: 28.2 µM [activator, partial curve]	
